# Measured values taken from PubChem BioAssay AID1645882 (National Center for Advancing Translational Sciences (NCATS), 2021).
# Screen size: about 16,000 compounds; about 120 (0.75%) were called active. Inconclusive results (about 4%) are left out. Calls follow the shape of the dose curve; as a rule, active = well fitted inhibition curve with a large enough effect; inconclusive = small, poorly fitted or top-dose-only effect; inactive = no such curve, though single readings can be large or run the other way. The list shows a part of the results.
# Molecular target: Rap guanine nucleotide exchange factor 3 (Homo sapiens) (UniProt O95398)
# Chain of UniProt O95398 (O95398 whole entry, looked up): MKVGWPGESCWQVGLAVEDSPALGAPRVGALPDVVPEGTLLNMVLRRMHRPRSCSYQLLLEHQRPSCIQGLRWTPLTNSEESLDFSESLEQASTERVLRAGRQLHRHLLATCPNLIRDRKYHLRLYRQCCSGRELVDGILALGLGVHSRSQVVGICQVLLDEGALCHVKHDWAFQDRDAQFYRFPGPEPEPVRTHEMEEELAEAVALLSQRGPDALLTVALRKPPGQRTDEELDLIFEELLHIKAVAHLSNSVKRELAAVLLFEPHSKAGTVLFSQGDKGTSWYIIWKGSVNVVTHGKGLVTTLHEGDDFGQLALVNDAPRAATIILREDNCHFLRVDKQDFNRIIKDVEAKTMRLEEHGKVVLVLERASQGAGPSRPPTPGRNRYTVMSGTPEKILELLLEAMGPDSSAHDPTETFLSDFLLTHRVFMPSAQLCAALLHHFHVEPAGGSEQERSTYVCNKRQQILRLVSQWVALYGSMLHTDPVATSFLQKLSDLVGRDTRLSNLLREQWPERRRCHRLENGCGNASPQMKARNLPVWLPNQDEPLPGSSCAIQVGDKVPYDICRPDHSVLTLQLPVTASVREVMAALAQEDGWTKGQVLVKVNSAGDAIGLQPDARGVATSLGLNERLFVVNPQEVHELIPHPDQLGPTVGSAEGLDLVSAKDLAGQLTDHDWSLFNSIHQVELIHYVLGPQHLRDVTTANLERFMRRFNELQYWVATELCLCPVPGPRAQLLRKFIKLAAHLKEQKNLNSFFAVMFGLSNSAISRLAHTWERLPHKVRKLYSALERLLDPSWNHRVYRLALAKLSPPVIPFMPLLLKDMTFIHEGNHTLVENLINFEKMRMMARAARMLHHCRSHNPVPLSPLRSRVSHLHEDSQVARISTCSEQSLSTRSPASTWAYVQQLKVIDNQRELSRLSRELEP
# Experiment: Validation qHTS for antagonist of cAMP-regulated guanine nucleotide exchange factor 3 (EPAC1); also: nearly all actives have a fitted effect of over 75% in size
# Settings: EPAC1 Rap1B-BODIPY-GDP exchange, fluorescence; series mostly up to 150 µM; activity change, negative = inhibition: at the top concentration
# Outline: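 EPAC1 (100 nM) mixed with 250 nM RAP1B-BODIPY-GDP and 50 uM GDP; compounds in concentration series, 5 min at room temperature. Fluorescence (ex 480/em 540 nm) read every 5 min for 30 min; normalized to ATA control and DMSO.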
row,SMILES,"activity change, negative = inhibition"
1,COc1ccc(NC(=O)N2CCCC3(CCN(C(=O)c4ccco4)CC3)C2)cc1,inactive: 14.3%
2,COc1cc(C(O)CO)ccc1OS(=O)(=O)O (stereo not given),inactive: -4.2% [at 75.8 µM]
3,Cc1noc(C)c1-c1nccc(NCc2ccccc2)n1,inactive: -5.26%
4,Cc1cc(-c2ccnc(-n3ncc(C(=O)NCc4cccnc4)c3C3CC3)n2)c(C)s1,inactive: 14.2%
5,C[C@H](CCC(=O)NCC(=O)O)C1CC[C@H]2[C@H]3C(C[C@H](O)[C@]12C)[C@@]1(C)CC[C@@H](O)C[C@H]1C[C@H]3O (stereo not given in full),inactive: 22.3%
6,CC(=O)Nc1ccccc1C(=O)C(=O)O,inactive: 12.2%
7,Fc1ccc([C@H]2CCNCC2COc2ccc3c(c2)OCO3)cc1 (stereo not given in full),inactive: 3.4%
8,Cc1ccnc2c(O)cccc12,inactive: 25.5%
9,O=C(Nc1ccccc1)N[C@H]1C[C@H](C(=O)O)Nc2cc(Cl)cc(Cl)c21,inactive: 10.4%
10,O=C1c2c(O)ccc(O)c2C(=O)c2c(NCCNCCO)ccc(NCCNCCO)c21,inactive
11,COc1cc(CN2C(=O)CC[C@@H]3CN(Cc4ccccn4)CC[C@@H]32)cc(OC)c1OC,inactive: 0.0038%
12,Cc1[nH]c2ccccc2c1/C=C/c1ccc2ccccc2n1,inactive: 1.66%
13,N#Cc1cccc(NC(=O)N2CCC3(CC2)CCN(C(=O)c2csnn2)CC3)c1,inactive: 13%
14,COCCn1c(=O)c(-c2ccccc2)nc2cnc(N3CCNCC3)nc21,inactive: 13.9%
15,CC(C(=O)O)c1ccc(C2CCCCC2)c2ccccc12 (stereo not given),inactive: 28.7%
16,CC(=O)O[C@H]1C[C@@H]2CC[C@@H]3[C@H](CC[C@@]4(C)[C@H]3C[C@H]([N+]3(C)CCCCC3)[C@@H]4OC(C)=O)[C@@]2(C)C[C@@H]1[N+]1(C)CCCCC1,inactive
17,Cc1noc(C)c1C(=O)N1CCC2(CCCN(c3ccccn3)C2)CC1,inactive: 1.18%
18,COCC(=O)N1CCC[C@@]2(CCN(Cc3ccccc3OC)C2)C1,inactive: 3.59%
19,CN(C)c1ncc2ncc(=O)n(C[C@H]3CCCO3)c2n1,inactive: 0.28%
20,COc1cc(O)c(C(=O)O)c(O)c1,inactive: 19.4%
21,O=C(NCCc1nnc2n1CCN(Cc1c(F)cccc1F)CC2)c1ccco1,inactive: 7.46%
22,CC(=O)[C@H]1CC[C@H]2[C@@H]3C=CC4=CC(=O)CC[C@@]4(C)[C@H]3CC[C@]12C,inactive: 4.08% [at 75.8 µM]
23,CCOC(=O)C1=C(C)NC(C)=C(C(=O)OC)C1c1cccc(Cl)c1Cl (stereo not given),inactive
24,COCc1c(C(=O)NC2CCCCCC2)cnn1-c1nccc(-c2cc(C)sc2C)n1,inactive: -10.8%
25,C[C@H](CCC(=O)O)[C@H]1CC[C@H]2[C@@H]3C(=O)C[C@@H]4CC(=O)CC[C@]4(C)[C@H]3CC(=O)[C@]12C,inactive: 10.4%

row,SMILES,"activity change, negative = inhibition"
1,COc1cccc(Nc2ncc3nc(CCc4ccccc4)c(=O)n(C)c3n2)c1,inactive: 27.7%
2,Cc1nc2sccn2c(=O)c1CCN1CCC(=C(c2ccc(F)cc2)c2ccc(F)cc2)CC1,inactive
3,CO[C@H]1C[C@H](O[C@@H]2/C(C)=C/C[C@@H]3C[C@@H](C[C@]4(CC[C@H](C)[C@@H](C5CCCCC5)O4)O3)OC(=O)[C@@H]3C=C(C)/C(=N/O)[C@H]4OC/C(=C\C=C\[C@@H]2C)[C@]43O)O[C@@H](C)[C@@H]1O,inactive: -2.21%
4,Cc1cnc(CNc2ncnc3ccc(-c4c(C)noc4C)cc23)cn1,inactive: 7.59%
5,COCCNc1ncnc2ccc(-c3ccccc3OC)cc12,inactive: 25.3%
6,OC[C@H]1O[C@H](n2cnc3c(N[C@H]4CCC[C@@H]4O)ncnc32)[C@H](O)[C@@H]1O,inactive: 20.1% [at 75.8 µM]
7,COc1ccc(NC(=O)N2CCCC3(CCN(C(=O)c4cccc(F)c4)CC3)C2)cc1,inactive: 12.8%
8,CC(C)(C)NC[C@H](O)COc1cccc2c1CCCC2=O,inactive: 13.3% [at 75.8 µM]
9,CCNc1ncc2nc(-c3ccc(Cl)cc3)c(=O)n(-c3ccccc3)c2n1,inactive: 20.1%
10,C[N+](C)(C)CCOC(N)=O,inactive
11,COc1ccc(OC)c(CN2CCC3(CCC(CNC(=O)c4ccco4)O3)CC2)c1 (stereo not given),inactive: 13.7%
12,CN1[C@@H]2CC(OC(=O)[C@H](CO)c3ccccc3)C[C@@H]1[C@H]1O[C@H]12 (stereo not given in full),inactive: 13.2%
13,COCC(=O)N1CCC2(CCCN(c3ncccn3)C2)CC1,inactive: 8.37%
14,Nc1ncn(C2OC(CO)C(O)C2O)c(=O)n1 (stereo not given),inactive: 7.41%
15,C=C1[C@@H]2CC[C@@H](C2)C1(C)C,inactive: 21.3%
16,COC1[C@@H](O[C@@H]2O[C@H](C)[C@@H](O[C@H]3C[C@@](C)(O)[C@H](OC(=O)CC(C)C)[C@H](C)O3)[C@H](N(C)C)[C@H]2O)[C@@H](CC=O)C[C@@H](C)[C@@H](O)/C=C/C=C/C[C@@H](C)OC(=O)C[C@H]1OC(C)=O (stereo not given in full),inactive: 13.8% [at 75.8 µM]
17,COc1cc2nc(N(C)C)c(CNC3CCOC(C)(C)C3)cc2c(OC)c1OC (stereo not given),inactive: 15.1%
18,O=C(NCc1nnc2n1CCN(Cc1cc3c(cc1Cl)OCO3)CC2)C1CCOC1 (stereo not given),inactive: 15.8%
19,O=c1c(-c2cc(F)cc(F)c2)nc2cnc(Nc3ccccc3)nc2n1C[C@H]1CCCO1,inactive: 17.7%
20,CC(=O)Nc1ccc(OC[C@@H](O)CNC(C)C)cc1,inactive: 15%
21,O=C(NC(Cc1cc(=O)[nH]c2ccccc12)C(=O)O)c1ccc(Cl)cc1 (stereo not given),inactive: 12.1%
22,COc1cc(O)cc(OC)c1OC,inactive: -5.52%
23,CCN1C(=O)C=CC1=O,inactive: 1.06% [at 75.8 µM]
24,CC(C)CN1CCC(=O)N([C@H](CO)c2ccccc2)CC1,inactive: 16.5%
25,Cc1noc(C)c1-c1ccc2ncnc(NCc3cccnc3)c2c1,inactive: 1.79%

row,SMILES,"activity change, negative = inhibition"
1,CC[C@]12CCCN3CCc4c(n(c5ccccc45)C(=O)C1)[C@H]32,inactive: 0.314%
2,O=c1c(-c2cc(F)cc(F)c2)nc2cncnc2n1Cc1ccccc1,inactive: -6.84%
3,CS(=O)(=O)N1CCC2(CC1)CN(c1ccncc1)C2,inactive: 7.42%
4,COc1ccc2c(c1)NC(=O)C2CC(=O)N1CCOc2c(cc(-c3cnc4ccccc4c3)cc2OC)C1 (stereo not given),inactive: 5.78%
5,CC(CNC(=O)c1cccnc1)NC(=O)c1cccnc1 (stereo not given),inactive: 14.6%
6,CC(C)C1=CC2=CCC3[C@@](C)(CCC[C@@]3(C)C(=O)O)C2CC1 (stereo not given in full),inactive: -20.2%
7,CC(C)SC(=N)N,inactive: 9.66%
8,O=C(C[n+]1ccccc1Cl)c1cccc([N+](=O)[O-])c1,inactive: -5.74%
9,COc1ccccc1-c1ccnc(-n2ncc(C(=O)N[C@H]3CCCCNC3=O)c2C2CC2)n1,inactive: 16.1%
10,CC(=O)N1CCC2(CC1)CCN(c1ccc(-c3ccccc3)cc1)CC2,inactive: -3.35%
11,CN(C)CCc1c[nH]c2ccc(CS(=O)(=O)N3CCCC3)cc12,inactive: 20.4%
12,c1cncc(-c2nccc(-n3ccnc3)n2)c1,inactive: 28.7%
13,Cc1ncc2c(c1CNC(=O)c1cncs1)CCN(C(=O)c1ccc(-c3ccccc3)cc1)C2,inactive: -1.15%
14,CCC1OC(=O)C(C)[C@@H](O[C@H]2C[C@@](C)(OC)C(O)C(C)O2)C(C)[C@@H](O[C@@H]2OC(C)CC(N(C)C)C2O)[C@](C)(O)CC(C)/C(=N\OCOCCOC)[C@H](C)C(O)[C@]1(C)O (stereo not given in full),inactive: 28.7%
15,COc1ccccc1CC(=O)NCC1Cc2cc(F)cc(-c3cncnc3)c2O1 (stereo not given),inactive: 1.96%
16,CN1CCN2c3ccccc3Cc3ccccc3C2C1 (stereo not given),inactive
17,CN(C)C(=O)c1ccc(-c2ccc3ncnc(N4CCC(C(=O)O)CC4)c3c2)cc1,inactive: 7.66%
18,COC1OC2COC(c3ccccc3)OC2C(O)C1O (stereo not given),inactive: -11.9%
19,O=C(c1ccco1)N1CCC[C@@]2(CCN(C(c3ccccc3)c3ccccc3)C2)C1,inactive: 17.2%
20,CN(C)C(=O)CCC(=O)NCC1Cc2cccc(-c3ccccc3C(F)(F)F)c2O1 (stereo not given),inactive: 15.1%
21,CCCCCCCCOc1ccccc1C(=O)Nc1ccc(C(=O)OCC[N+](C)(CC)CC)cc1,inactive: 8.75%
22,COc1ccc(C(=O)N2CCC3(CCCN(C(=O)Nc4cccc(F)c4)C3)CC2)cc1,inactive: 17.7%
23,N[C@@H](Cc1ccc(O)c(O)c1)C(=O)O,inactive
24,O=C1NC2CCCCN2C12CCN(CCCN1c3ccccc3CCc3ccc(Cl)cc31)CC2 (stereo not given),inactive: -19.3%
25,CC(=O)Nc1cc(C(=O)N2CCCC(C)C2)cc2ncn(CCc3ccccn3)c12 (stereo not given),inactive: 13%

row,SMILES,"activity change, negative = inhibition"
1,C[C@@H]1[C@H](c2ccccc2)OCCS(=O)(=O)N1Cc1ccccc1F,inactive: -0.958%
2,CCCCc1ncc(/C=C(\Cc2cccs2)C(=O)O)n1Cc1ccc(C(=O)O)cc1,inactive: 16.3%
3,CCC(C)C(NC)C(=O)O (stereo not given),inactive: 13.8%
4,O=C1NC(=O)C(Cc2ccccc2F)(C2CCN(Cc3cccn3-c3cccnc3)CC2)N1 (stereo not given),inactive: 13.9%
5,Cc1ccc(C2(O)CCN(CCCC(=O)c3ccc(F)cc3)CC2)cc1,inactive: 26.2%
6,COc1ccc(/C=C/C(=O)O)cc1,inactive: 8.37%
7,O=C(c1cnccn1)N1CCC2(CC1)CN(c1cccc(-c3ccccc3)c1)C2,inactive: 1.31%
8,COc1ccc(-c2coc3cc(O)ccc3c2=O)c(OC)c1,inactive: 6.84%
9,Cc1cc(-c2cc(F)cc3c2OC(CNC(=O)CCn2cncn2)C3)ccc1F (stereo not given),inactive: 6.14%
10,COc1ccc(C(=O)N2CCC[C@@]3(CCN(c4ccncc4)C3)C2)cc1,inactive: 1.63%
11,O=C(O)CCC(=O)c1ccc(-c2ccccc2)cc1,inactive
12,COc1cc(=O)n2c(c1C(=O)NC(C)c1ccco1)CCN(Cc1ccc3nsnc3c1)CC2 (stereo not given),inactive: 12.4%
13,CCNc1ncc2nc(-c3cc(F)cc(F)c3)c(=O)n(C)c2n1,inactive: 20.7%
14,COc1ccc(CN2Cc3cccc4c3[C@@H](CC2=O)[C@H](O)[C@H](O)C4)cc1,inactive: -14.4%
15,O=c1cc(N2CCOCC2)oc2c(-c3ccccc3)cccc12,inactive
16,Oc1cccc2c(CC(O)c3c[nH]c4ccccc34)ccnc12 (stereo not given),inactive: -20.5%
17,O=C(O)C1CN(CCCP(=O)(O)O)CCN1 (stereo not given),inactive: 1.24% [at 75.8 µM]
18,Cc1noc(C)c1C(=O)N1CCC2(CCCN(c3ccncc3)C2)CC1,inactive: 12.2%
19,CCOC(N)=O,inactive: 17%
20,O=C(c1ccncc1)N1CCC2(CC1)CN(c1ccccn1)C2,inactive: 4.88%
21,CO[C@@]1(NC(=O)CSCC#N)C(=O)N2C(C(=O)O)=C(CSc3nnnn3C)CSC21 (stereo not given in full),inactive: 14.1%
22,COc1ccc(CN2CCCC(c3nc(C)ncc3-c3ccc(F)cc3)C2)c(OC)c1OC (stereo not given),inactive: 0.378%
23,CCn1c(-c2cccnc2)nc2cc(NC(=O)COC)cc(C(=O)N3CCc4ccccc4C3)c21,inactive: 6.82%
24,O=C1c2cccc(O)c2C(=O)c2c(O)cccc21,inactive
25,COCCn1c(=O)c(-c2ccc(OC)cc2)nc2cnc(OCc3ccccc3)nc21,inactive: 21.2%
